{"source": "paper PMC3335862", "about": "“Novel Small-Molecule Inhibitors of Hepatitis C Virus Entry Block Viral Spread and Promote Viral Clearance in Cell Culture” (PLoS ONE, 2012)", "test_system": "GT 1b/2a HCV", "test": "HCV cell culture infection assay (Renilla luciferase), GT 1b/2a", "conditions": "at the highest concentration tested"}
{"smiles": "CS(=O)(=O)N1CCC(Nc2nc(Nc3cccc(C(F)(F)F)c3)nc(OCC(F)(F)F)n2)CC1", "note": "[PRO0371155]", "values": [{"measurement": "anti-viral activity against GT 1b/2a HCV", "result": "no anti-viral activity"}]}
